According to the supplement of paper PMC8728848:
The other results are listed elsewhere or left out.

Key:
Experiment in all cases: glycan array binding signal (z-score within array); higher = stronger binding
Conditions in all cases: glycan notation: IUPAC condensed, linker removed
[1] = biological target: Neu5Ac(a2-6)Gal(b1-3)GlcNAc(b1-3)[Gal(b1-4)GlcNAc(b1-6)]Gal(b1-4)Glc
Procedure, shortened: (§1)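 The binding signal is a Z-score computed within each array. Data were drawn from 3228 arrays in the Consortium for Functional Glycomics database, restricted to those with a known protein sequence. Scores were averaged over arrays of the same protein sequence at different concentrations or buffers, and over linkers, and negative values can be taken as non-binding.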

Neu5Ac(a2-6)Gal(b1-4)Glc = biological target: Neu5Ac(a2-6)Gal(b1-4)Glc
Procedure, shortened: as §1

[2] = biological target: Neu5Ac(a2-6)Gal(b1-4)GlcNAc
Procedure, shortened: as §1

[3] = biological target: Neu5Ac(a2-6)Gal(b1-4)GlcNAc(b1-2)Man
Procedure, shortened: as §1

[4] = biological target: Neu5Ac(a2-6)Gal(b1-4)GlcNAc(b1-2)Man(a1-3)Man(b1-4)GlcNAc(b1-4)GlcNAc
Procedure, shortened: as §1

[5] = biological target: Neu5Ac(a2-6)Gal(b1-4)GlcNAc(b1-2)Man(a1-3)[Gal(b1-4)GlcNAc(b1-2)Man(a1-6)]Man(b1-4)GlcNAc(b1-4)GlcNAc
Procedure, shortened: as §1

[6] = biological target: Neu5Ac(a2-6)Gal(b1-4)GlcNAc(b1-2)Man(a1-3)[GlcNAc(b1-2)Man(a1-6)]Man(b1-4)GlcNAc(b1-4)GlcNAc
Procedure, shortened: as §1

[7] = biological target: Neu5Ac(a2-6)Gal(b1-4)GlcNAc(b1-2)Man(a1-3)[GlcNAc(b1-4)][Neu5Ac(a2-6)Gal(b1-4)GlcNAc(b1-2)Man(a1-6)]Man(b1-4)GlcNAc(b1-4)GlcNAc
Procedure, shortened: as §1

[8] = biological target: Neu5Ac(a2-6)Gal(b1-4)GlcNAc(b1-2)Man(a1-3)[Man(a1-6)]Man(b1-4)GlcNAc(b1-4)GlcNAc
Procedure, shortened: as §1

[9] = biological target: Neu5Ac(a2-6)Gal(b1-4)GlcNAc(b1-2)Man(a1-3)[Neu5Ac(a2-3)Gal(b1-4)GlcNAc(b1-2)Man(a1-6)]Man(b1-4)GlcNAc(b1-4)GlcNAc
Procedure, shortened: as §1

[10] = biological target: Neu5Ac(a2-6)Gal(b1-4)GlcNAc(b1-2)Man(a1-3)[Neu5Ac(a2-6)Gal(b1-4)GlcNAc(b1-2)Man(a1-6)]Man(b1-4)GlcNAc(b1-4)GlcNAc
Procedure, shortened: as §1

[11] = biological target: Neu5Ac(a2-6)Gal(b1-4)GlcNAc(b1-2)Man(a1-3)[Neu5Ac(a2-6)Gal(b1-4)GlcNAc(b1-2)Man(a1-6)]Man(b1-4)GlcNAc(b1-4)[Fuc(a1-6)]GlcNAc
Procedure, shortened: as §1

[12] = biological target: Neu5Ac(a2-6)Gal(b1-4)GlcNAc(b1-2)Man(a1-6)Man(b1-4)GlcNAc(b1-4)GlcNAc
Procedure, shortened: as §1

[13] = biological target: Neu5Ac(a2-6)Gal(b1-4)GlcNAc(b1-2)Man(a1-6)[Gal(b1-4)GlcNAc(b1-2)Man(a1-3)]Man(b1-4)GlcNAc(b1-4)GlcNAc
Procedure, shortened: as §1

[14] = biological target: Neu5Ac(a2-6)Gal(b1-4)GlcNAc(b1-2)Man(a1-6)[GlcNAc(b1-2)Man(a1-3)]Man(b1-4)GlcNAc(b1-4)GlcNAc
Procedure, shortened: as §1

[15] = biological target: Neu5Ac(a2-6)Gal(b1-4)GlcNAc(b1-2)Man(a1-6)[Man(a1-3)]Man(b1-4)GlcNAc(b1-4)GlcNAc
Procedure, shortened: as §1

[16] = biological target: Neu5Ac(a2-6)Gal(b1-4)GlcNAc(b1-2)[Neu5Ac(a2-6)Gal(b1-4)GlcNAc(b1-4)]Man(a1-3)[GlcNAc(b1-4)][Neu5Ac(a2-6)Gal(b1-4)GlcNAc(b1-2)[Neu5Ac(a2-6)Gal(b1-4)GlcNAc(b1-6)]Man(a1-6)]Man(b1-4)GlcNAc(b1-4)GlcNAc
Procedure, shortened: as §1

[17] = biological target: Neu5Ac(a2-6)Gal(b1-4)GlcNAc(b1-2)[Neu5Ac(a2-6)Gal(b1-4)GlcNAc(b1-4)]Man(a1-3)[GlcNAc(b1-4)][Neu5Ac(a2-6)Gal(b1-4)GlcNAc(b1-4)Man(a1-6)]Man(b1-4)GlcNAc(b1-4)GlcNAc
Procedure, shortened: as §1

[18] = biological target: Neu5Ac(a2-6)Gal(b1-4)GlcNAc(b1-2)[Neu5Ac(a2-6)Gal(b1-4)GlcNAc(b1-6)]Man(a1-6)[Neu5Ac(a2-6)Gal(b1-4)GlcNAc(b1-2)Man(a1-3)][GlcNAc(b1-4)]Man(b1-4)GlcNAc(b1-4)GlcNAc
Procedure, shortened: as §1

[19] = biological target: Neu5Ac(a2-6)Gal(b1-4)GlcNAc(b1-3)Gal(b1-3)GlcNAc
Procedure, shortened: as §1

[20] = biological target: Neu5Ac(a2-6)Gal(b1-4)GlcNAc(b1-3)Gal(b1-4)GlcNAc
Procedure, shortened: as §1

[21] = biological target: Neu5Ac(a2-6)Gal(b1-4)GlcNAc(b1-3)Gal(b1-4)GlcNAc(b1-2)Man(a1-3)[Neu5Ac(a2-6)Gal(b1-4)GlcNAc(b1-3)Gal(b1-4)GlcNAc(b1-2)Man(a1-6)]GalNAc
Procedure, shortened: as §1

[22] = biological target: Neu5Ac(a2-6)Gal(b1-4)GlcNAc(b1-3)Gal(b1-4)GlcNAc(b1-3)Gal(b1-4)GlcNAc
Procedure, shortened: as §1

[23] = biological target: Neu5Ac(a2-6)Gal(b1-4)GlcNAc(b1-3)Gal(b1-4)GlcNAc(b1-3)Gal(b1-4)GlcNAc(b1-2)Man(a1-3)[Neu5Ac(a2-6)Gal(b1-4)GlcNAc(b1-3)Gal(b1-4)GlcNAc(b1-3)Gal(b1-4)GlcNAc(b1-2)Man(a1-6)]GalNAc
Procedure, shortened: as §1

[24] = biological target: Neu5Ac(a2-6)Gal(b1-4)GlcNAc(b1-3)Gal(b1-4)GlcNAc(b1-3)GalNAc
Procedure, shortened: as §1

[25] = biological target: Neu5Ac(a2-6)Gal(b1-4)GlcNAc(b1-3)Gal(b1-4)GlcNAc(b1-3)[Neu5Ac(a2-6)Gal(b1-4)GlcNAc(b1-3)Gal(b1-4)GlcNAc(b1-6)]GalNAc
Procedure, shortened: as §1

[26] = biological target: Neu5Ac(a2-6)Gal(b1-4)GlcNAc(b1-3)Gal(b1-4)GlcNAc(b1-6)[Gal(b1-3)]GalNAc
Procedure, shortened: as §1

[27] = biological target: Neu5Ac(a2-6)Gal(b1-4)GlcNAc(b1-3)Gal(b1-4)[Fuc(a1-3)]GlcNAc(b1-3)Gal(b1-4)[Fuc(a1-3)]GlcNAc
Procedure, shortened: as §1

[28] = biological target: Neu5Ac(a2-6)Gal(b1-4)GlcNAc(b1-3)GalNAc
Procedure, shortened: as §1

[29] = biological target: Neu5Ac(a2-6)Gal(b1-4)GlcNAc(b1-3)[Neu5Ac(a2-6)Gal(b1-4)GlcNAc(b1-6)]GalNAc
Procedure, shortened: as §1

[30] = biological target: Neu5Ac(a2-6)Gal(b1-4)GlcNAc(b1-6)GalNAc
Procedure, shortened: as §1

[31] = biological target: Neu5Ac(a2-6)Gal(b1-4)GlcNAc(b1-6)[Gal(b1-3)GlcNAc(b1-3)]Gal(b1-4)Glc
Procedure, shortened: as §1

[32] = biological target: Neu5Ac(a2-6)Gal(b1-4)GlcNAc(b1-6)[Gal(b1-3)]GalNAc
Procedure, shortened: as §1

[33] = biological target: Neu5Ac(a2-6)Gal(b1-4)GlcNAc6S
Procedure, shortened: as §1

Neu5Ac(a2-6)GalNAc = biological target: Neu5Ac(a2-6)GalNAc
Procedure, shortened: as §1

[34] = biological target: Neu5Ac(a2-6)GalNAc(b1-4)GlcNAc
Procedure, shortened: as §1

[35] = biological target: Neu5Ac(a2-6)GalNAc(b1-4)GlcNAc6S
Procedure, shortened: as §1

[36] = biological target: Neu5Ac(a2-6)GlcNAc(b1-4)GlcNAc
Procedure, shortened: as §1

B1: SP16664D-bth-476-27-476 (Bacteroides thetaiotaomicron) (protein)
chain: DDLEVGKNIDESAYSGIYENNAYLRDGKSNLVSKVVELHGETYATTVKMGLSKTPNTATSAKVKIDAAYLETYNKAHNTDFALYPQDLVTFANEGILTVNANTKSAEVEMTIRAGEGLQEDKTYAIPVAISDQSSDITIKDEDAKHCIYLVKDMRNAGDAYKGEGVMQGYLFFEVNDVNPLNTLSFQLENGKLLWDVVVLFAANINYDAEAGRPRVQCNPNVQYLLDNNETLLQPLRRRGVKVLLGLLGNHDITGLAQLSEQGAKDFAREVAQYCKAYNLDGVNYDDEYSNSPDLSNPSLTNPSTAAAARLCYETKQAMPDKLVTVFDWGQMYGVATVDGVDAKEWIDIVVANYGSAAYPIGQMTKKQCSGISMEFNLGGGGSLSASKAQSMIDGGYGWFMGFAPSPAKYGSVFSRLQGGGEVLYGSNVAAPTIFYKKNDPTPYKYPDDL
glycan array binding signal (z-score) [1]: -0.231 | glycan array binding signal (z-score) (Neu5Ac(a2-6)Gal(b1-4)Glc): -0.14 | glycan array binding signal (z-score) [2]: 0.013 | glycan array binding signal (z-score) [3]: -0.235 | glycan array binding signal (z-score) [4]: -0.117 | glycan array binding signal (z-score) [5]: 2.55 | glycan array binding signal (z-score) [6]: -0.148 | glycan array binding signal (z-score) [7]: -0.245 | glycan array binding signal (z-score) [8]: 0.225 | glycan array binding signal (z-score) [9]: -0.189 | glycan array binding signal (z-score) [10]: -0.142 | glycan array binding signal (z-score) [11]: -0.099 | glycan array binding signal (z-score) [12]: -0.278 | glycan array binding signal (z-score) [13]: -0.04 | glycan array binding signal (z-score) [14]: -0.148 | glycan array binding signal (z-score) [15]: 3.75 | glycan array binding signal (z-score) [16]: 2.38 | glycan array binding signal (z-score) [17]: 0.758 | glycan array binding signal (z-score) [18]: -0.296 | glycan array binding signal (z-score) [19]: -0.052 | glycan array binding signal (z-score) [20]: -0.238 | glycan array binding signal (z-score) [21]: 1.28 | glycan array binding signal (z-score) [22]: 0.087 | glycan array binding signal (z-score) [23]: 0.104 | glycan array binding signal (z-score) [24]: -0.363 | glycan array binding signal (z-score) [25]: -0.235 | glycan array binding signal (z-score) [26]: 0.291 | glycan array binding signal (z-score) [27]: 0.048 | glycan array binding signal (z-score) [28]: -0.194 | glycan array binding signal (z-score) [29]: -0.309 | glycan array binding signal (z-score) [30]: -0.041 | glycan array binding signal (z-score) [31]: -0.349 | glycan array binding signal (z-score) [32]: -0.082 | glycan array binding signal (z-score) [33]: -0.047 | glycan array binding signal (z-score) (Neu5Ac(a2-6)GalNAc): -0.006 | glycan array binding signal (z-score) [34]: -0.264 | glycan array binding signal (z-score) [35]: -0.065 | glycan array binding signal (z-score) [36]: 0.144
